From paper PMC12136788
Some of the results follow.

T1: UNK ZnF1-3 (human, UniProt Q9C0B0 31-174)
T1 sequence: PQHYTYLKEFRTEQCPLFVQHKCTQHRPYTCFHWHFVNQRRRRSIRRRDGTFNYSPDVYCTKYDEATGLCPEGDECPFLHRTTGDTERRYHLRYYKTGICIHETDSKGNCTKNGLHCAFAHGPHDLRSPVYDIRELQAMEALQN

B1: chr1:185270655:185270656:-_ENSG00000116679_ENST00000392007|hu_mus|FALSE|FALSE (ssRNA)
RNA: GGGAGUUCUACAGUCCGACGAUCCUCAUGCUUAGGGCUUUGCAUUGAAGCAUUUGGAGAAGAGAGACAUCCAGUGGAACUGCCACUUAUCUGCUUAUGGCCAUUCUCACGGGGUGGCUUUUUCUGCACAAACUGAAUGUGGUCCAACAGAGGAUUGAGCAUCA
B2: chr7:141445308:141445309:+_ENSG00000106028_ENST00000265304|hu_hu|hu_hu_hu_mus_False|18_98 (ssRNA)
RNA: GGGAGUUCUACAGUCCGACGAUCUAUGAUUGUUGUUGCUUGUCGCCUCACAUUGUUUUUAUCCAUGUACUCGCCAUAGUCCACUUUCCCUUCCACAAAUAUACGAGCCCCCUUUUUCACAUAUUGAUAUGCCACAUCUCUGAGCAACAGAGGAUUGAGCAUCA
B3: 146261728_146269625_1292_3pUTR_ENSMUSG00000037110_ENSMUST00000109986|mouse|control|control (ssRNA)
RNA: GGGAGUUCUACAGUCCGACGAUCGGCAACAAAAAUGCCUGUCGAAAUACUUCAUUCACAAAAUUCACAUAACCCCGUGUUGACAGGAGGAUCCGCUGCACCAUCUCAUACACUGUCCGAUGCUCCUCUUCAAUGCUACAAAGACAACAGAGGAUUGAGCAUCA
B4: chr17:45757878:45757879:+_ENSG00000108424_ENST00000290158|hu_hu|motif|central (ssRNA)
RNA: GGGAGUUCUACAGUCCGACGAUCUGGCCUAGCUUCUACUAAUUUCAGUACAUCCUUCCCAAAUGCUGUACAUAAGUCCCCGGUUAGUCCAGCAGCACAAGCUACUACUCCAUCUGUGUGAUCCUCAUCUCCAGCAAUGUGGUCCAACAGAGGAUUGAGCAUCA
B5: chr9:15470827:15470828:-_ENSG00000164985_ENST00000397519|hu_hu|FALSE|FALSE (ssRNA)
RNA: GGGAGUUCUACAGUCCGACGAUCGAAUGUCAAGAGAAGGGCCCCAUUCUCAGGGAUAUAACUGCUAUUCCAGUUUAAUAACUAGCUUCAAAACAAAAUGAAUUUUUAUAUUUUCUAGAUGAAUAAUGUACAACCACCAUCUUCCAACAGAGGAUUGAGCAUCA
B6: chr13:56191178:56191179:-_ENSMUSG00000015937_ENSMUST00000016081|mus_mus|FALSE|FALSE (ssRNA)
RNA: GGGAGUUCUACAGUCCGACGAUCUUUAAGGUCAAUGUCAGCAUUGGUAGGAUUGAUUAUGGCCUCCACCUCAAAGCCGGCUAAAUUACUGAUUUCACUGUGAAUAAGGUUCAGCUUCUGGCCGAGGAAGAGGCUCUUGGUGGACAACAGAGGAUUGAGCAUCA
B7: 11407854_11410356_879_3pUTR_ENSMUSG00000026773_ENSMUST00000114846|mouse|control|control (ssRNA)
RNA: GGGAGUUCUACAGUCCGACGAUCUUAUCAGGGUCAAGAGGCUGGUAGCUGGCUUCAUAGCAAUUGAUUCUCUUCAUGAAGUCGUCCAUGGCUUCUGCUGAGUUGCAGUCUUUGUAAUCCGGGCUGGAGAUUUUAACUUCCAUGCAACAGAGGAUUGAGCAUCA
B8: chr9:13610522:13610523:+_ENSMUSG00000031918_ENSMUST00000134674|mus_hu|FALSE|FALSE (ssRNA)
RNA: GGGAGUUCUACAGUCCGACGAUCUCCUGUAUGGCUACUUUCUCCCCUUCAUUUUCCCCCAAGCACAUCUAUAAGGCCUCCCAUUUUGGAUCAACUUGCUAAUAUGUCUUAAGUAUGUAAAUAAUGACGGCAAUAAUUUUCAACCAACAGAGGAUUGAGCAUCA
B9: chr14:94519448:94519449:-_ENSG00000089737_ENST00000330836|hu_mus|motif|central (ssRNA)
RNA: GGGAGUUCUACAGUCCGACGAUCUGAGUUGUGCAGACAAGCCUGGAAGUUCCGGUAUUCAGCUUUUUCAAUCUGUCGGGCGGGACGGAUCCGCUCCUUGACCACAUCCAUGUACUUGGACUGCACUGGAAACAGUGGGAUGUCCAACAGAGGAUUGAGCAUCA
B10: chr17:65740002:65740003:+_ENSG00000130935_ENST00000581375|hu_hu|motif|central (ssRNA)
RNA: GGGAGUUCUACAGUCCGACGAUCACACCGUUCUUGCCUGGAUGAAGCAAGAGUUCACAUAAAAGAGCUUUAUAAAAUGUCGGUGAAGGAGAAUUGAUAAUAUCAGAAGAGCUCCAGCACUUCAAUUGAAUAUAAUCCUCUAUUCAACAGAGGAUUGAGCAUCA
B11: chr7:90019433:90019434:+_ENSMUSG00000057706_ENSMUST00000082237|mus_hu|mus_mus_mus_hu_True|98_108 (ssRNA)
RNA: GGGAGUUCUACAGUCCGACGAUCAAAAAUACAGUGUUCUUUGCCAUUAAGGCCAUACUAAAAUAAAAAGAUUUAACCCAGCUACAAAAAAGUUCACUGAACUUAAAUUAAAAUACUUGUAAACAUCUUUGCAAUAUGAAAUAUCAACAGAGGAUUGAGCAUCA
B12: chr5:132216804:132216805:-_ENSG00000072364_ENST00000265343|hu_hu|motif|central (ssRNA)
RNA: GGGAGUUCUACAGUCCGACGAUCAGAUAUCAACUUGGCAUCCUGGCGAAGCCAGUGCAGUCCCUGCCGGGUAUAACGAACGGGAUCUGUCAUGAUGCUUGCAUUAAAGAUGAGAGGGCCCAUUACUUUAUCCAGUUCAGCAAACAACAGAGGAUUGAGCAUCA
B13: 4764777_4764897_1258_3pUTR_ENSG00000101265_ENST00000379400|human|control|control (ssRNA)
RNA: GGGAGUUCUACAGUCCGACGAUCUCCAGGUAGCAAAUGAUGGCUUGGCCGGAGCUGGGGAGGUUUGUGUCUAAAUGUUUCCAUGGAAAGAAAGUGCCUAGCUUCCUGGGGGUCUUAUGGGCAAUGGCGGUUCCUGGGGUGCCCCAACAGAGGAUUGAGCAUCA
B14: chr14:66974463:66974464:+_ENSMUSG00000022044_ENSMUST00000074523|mus_hu|mus_mus_mus_hu_False|8_48 (ssRNA)
RNA: GGGAGUUCUACAGUCCGACGAUCUUGUAGGACGACUUAUUCAGGGGAUCGGCCAGGAAGCAGGAGCAGAACAAGGACACCAGCGGGAGUUCCUUCAUCUUCUCUUUGUAGGCAGCAAGGGUCAUGUUGGCUGGAAUUGGUGGCCAACAGAGGAUUGAGCAUCA
B15: 76004303_76004423_11957_CDS_ENSMUSG00000022565_ENSMUST00000071869|mouse|control|control (ssRNA)
RNA: GGGAGUUCUACAGUCCGACGAUCGAUGGGGUCAAUGACAUAGCCGGUGGCUGCCUGUGCUUCCAGGAGCUCAAAGGCUGUCCCGGGGCGGAUGAUGCCCUUCUUCAUAGCCUGGUACACCGAGAGCCGUUCCUUGGUGGCAUCCAACAGAGGAUUGAGCAUCA
B16: chr14:89307221:89307222:+_ENSG00000165533_ENST00000346301|hu_mus|hu_hu_hu_mus_False|98_108 (ssRNA)
RNA: GGGAGUUCUACAGUCCGACGAUCUCCUGUCUGAUUAGUUCCAGGGAGCUUCAAAGAUGUGCCAGGGCGUGGGACCUGAGCAAUAGCAUUUUCAUCCAGGAUCAUUUCAGCAAUUCCUUCCUGGUCCACAUCAAUUUCAUCUAUCAACAGAGGAUUGAGCAUCA
B17: chr3:58389886:58389887:+_ENSMUSG00000075700_ENSMUST00000107924|mus_hu|FALSE|FALSE (ssRNA)
RNA: GGGAGUUCUACAGUCCGACGAUCCUUGCCAACAAUUAUUAAGCCUAUUAAUACUAGUUUGAAGACUGACAGGAAAGAUGCUAUGUGUCUAUAUAUUGGUUGAGGGAGGUAAUUCUCUCCUUCAAUGCGGAUGUCUGGGUACCGCAACAGAGGAUUGAGCAUCA
B18: 112745453_112760222_1176_CDS_ENSG00000108061_ENST00000369452|human|control|control (ssRNA)
RNA: GGGAGUUCUACAGUCCGACGAUCUGACAGUCUGUUAUAUCUCAGACCAAGACGACUUAAACUGGACAGGUUUCCUAUAGUAUCUGGGAGGUCUAGCAGUUCAUUGUGCUGCAAGUCAAGGUUGGUUAUCUGUGUACAGUUUCCCAACAGAGGAUUGAGCAUCA
B19: chr5:146773137:146773138:-_ENSG00000113657_ENST00000343218|hu_hu|FALSE|FALSE (ssRNA)
RNA: GGGAGUUCUACAGUCCGACGAUCCAUGGAAAUAACGUACGUCAUCAACACAAUAUACAACACCCCUUCCACUCACCUGACCCACCCACCUCCCUCCUACAUGCCCUACCCCAGCCCCUCUGCACCCUCCACCUUGCUCCAGGCCAACAGAGGAUUGAGCAUCA
B20: chr1:150795811:150795812:-_ENSG00000143437_ENST00000358595|hu_hu|FALSE|FALSE (ssRNA)
RNA: GGGAGUUCUACAGUCCGACGAUCCCAUUCUUGGUUCUUAGACCGGAACCGGAACAUGACAGACAGCACUUGGCCUUUUAAUUUCACUACCUGUUGGAAGCUGUCUCUUAGAAGCUGCUGGUCUUCAGGAUGACAGAAUUCUACCAACAGAGGAUUGAGCAUCA
B21: chr1:46159212:46159213:+_ENSG00000159596_ENST00000372025|hu_mus|hu_hu_hu_mus_True|18_58 (ssRNA)
RNA: GGGAGUUCUACAGUCCGACGAUCUCUGAUCCCUCCCAAGAAAGCUAGGAAACCGGCUCCAUAAGCCAUCUGAGUGAAAGCUAAUAUGGGGAUAUAAGACUUUGUUAUUACCAUGAGCAGUGGUGGAGCAGUAAAGGGGAUUAACAACAGAGGAUUGAGCAUCA
B22: chr6:36759938:36759939:-_ENSMUSG00000029838_ENSMUST00000101534|mus_hu|FALSE|FALSE (ssRNA)
RNA: GGGAGUUCUACAGUCCGACGAUCGAGCCUGCAUUUUUGAGUUGGAAACGUCCUCUCUGGCGCUCAGUCUGCCUUUGUUGCAAGGGGCGAGGUUGCUACCGCUGAGUCCAGGUACCCGGCUCGCUGCAGCUCCUGCUUGGGCCGCAACAGAGGAUUGAGCAUCA

biological target: T1, UNK ZnF1-3; assay: nsRBNS (natural sequence RNA bind-n-seq); RBNS binding buffer (assumed for nsRBNS): 25 mM Tris pH 7.5, 150 mM KCl, 3 mM MgCl2, 0.01% Triton X-100, 500 ug/ml BSA, 20 U/ml SUPERase-In, 4 C; UNK is unkempt and MSI1 is Musashi-1; names of the RNAs are library labels; protein concentration not given here; high values mean tight binding

| Binder | binding signal [enrichment R] |
| --- | --- |
| B1 | 1.06 |
| B2 | 0.585 |
| B3 | 1.74 |
| B4 | 0.869 |
| B5 | 1.82 |
| B6 | 0.773 |
| B7 | 0.481 |
| B8 | 1.7 |
| B9 | 0.707 |
| B10 | 1 |
| B11 | 1.78 |
| B12 | 1.05 |
| B13 | 1.28 |
| B14 | 2.85 |
| B15 | 0.908 |
| B16 | 0.747 |
| B17 | 1.26 |
| B18 | 0.952 |
| B19 | 1.44 |
| B20 | 0.846 |
| B21 | 1.94 |
| B22 | 0.561 |
